# From the supplement of paper PMC12217912
# The list shows a part of the results. Sequences were assembled here from the parent chain. Inactive controls read about 0.05.
# B1: TEV protease; numbered along this chain (parent)
# chain: MGESLFKGPRDYNPISSSICHLTNESDGHTTSLYGIGFGPFIITNKHLFRRNNGTLVVQSLHGVFKVKDTTTLQQHLVDGRDMIIIRMPKDFPPFPQKLKFREPQREERICLVTTNFQTKSMSSMVSDTSCTFPSGDGIFWKHWIQTKDGQCGSPLVSTRDGFIVGIHSASNFTNTNNYFTSVPKNFMELLTNQEAQQWVSGWRLNADSVLWGGHKVFMVKPEEPFQPVKEATQL
# Variants of: B1
# Assay: raw area under fraction-flipped curve 0-4 h after induction (AUC4h, not background-subtracted), DNA-recorder readout of cleavage of the substrate (dimensionless); higher = more cleavage of the substrate by the protease variant
# Conditions: temperature: 34 °C; time window: 0-4 h after rhamnose induction
# 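Also: Bxb1 expression induced with 0.2% (w/v) L-rhamnose at OD600 near 0.5, cultures sampled hourly, flipped fraction per protease–substrate barcode pair counted by paired-end Illumina sequencing.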
Variant,area with substrate ENLAFQS,area with substrate ENLDFQS,area with substrate ENLEFQS,area with substrate ENLFFQS,area with substrate ENLGFQS,area with substrate ENLHFQS,area with substrate ENLKFQS,area with substrate ENLLFQS,area with substrate ENLPFQS,area with substrate ENLSFQS,area with substrate ENLVFQS,area with substrate ENLWFQS,area with substrate ENLCFQS,area with substrate ENLMFQS,area with substrate ENLNFQS,area with substrate ENLQFQS,area with substrate ENLIFQS,area with substrate ENLRFQS,area with substrate ENLTFQS
MGESLFKGPRDYNPISSSICHLTNESDGHTTSLYGIGFGPFIITNKHLFRRNNGTLVVQSLHGVFKVKDTTTLQQHLVDGRDMIIIRMPKDFPPFPQKLKFREPQREERICLVTTNFQTKSMSSMVSDTSCTFPSGDGIFWKHWIQTKDGQCGSPLVSTRDGFIVGIHSASNFTNTNNYFTSVPKNFMELLTNQEAQQWVSGWRLNADSVLWDGHKVFMVKPEEPFQPVKEATQL [G213D],0.0574,0.0611,0.0702,0.0657,0.0611,0.0556,0.0569,0.0505,0.0624,0.0474,0.0398,0.0611,–,–,–,–,–,–,–
MGESLFKGPRDYNPISSSICHLTNESDGHTTSLYGIGFGPFIITNKHLFRRNNGTLVVQSLHGVFKVKDTTTLQQHLVDGRDMIIIRMPKDFPPFPQKLKFREPQREERICLVTTNFQTKSMSSMVSDTSCTFPSGDGIFWKHWIQTKDGQCGSPLVSTRDGFIVGIHSASNFTNTNNYFTSVPKNFMELLTNQEAQQWVSGWRLNADSVLWMGHKVFMVKPEEPFQPVKEATQL [G213M],0.0645,0.0573,0.0756,0.0725,–,–,0.0644,–,–,0.0525,0.0751,–,0.0679,0.07,0.0574,0.0581,–,–,–
MGESLFKGPRDYNPISSSICHLTNESDGHTTSLYGIGFGPFIITNKHLFRRNNGTLVVQSLHGVFKVKDTTTLQQHLVDGRDMIIIRMPKDFPPFPQKLKFREPQREERICLVTTNFQTKSMSSMVSDTSCTFPSGDGIFWKHWIQTKDGQCGSPLVSTRDGFIVGIHSASNFTNTNNYFTSVPKNFMELLTNQEAQQWVSGWRLNADSVLWWGHKVFMVKPEEPFQPVKEATQL [G213W],0.0662,0.0618,0.0665,0.0671,0.0479,0.0648,0.0624,0.054,0.0565,0.0478,0.0678,0.0597,0.0607,0.0544,0.0626,0.0651,0.0566,0.0354,–
MGESLFKGPRDYNPISSSICHLTNESDGHTTSLYGIGFGPFIITNKHLFRRNNGTLVVQSLHGVFKVKDTTTLQQHLVDGRDMIIIRMPKDFPPFPQKLKFREPQREERICLVTTNFQTKSMSSMVSDTSCTFPSGDGIFWKHWIQTKDGQCGSPLVSTRDGFIVGIHSASNFTNTNNYFTSVPKNFMELLTNQEAQQWVSGWRLNADSVLWGGEKVFMVKPEEPFQPVKEATQL [H215E],0.0687,0.0699,–,0.0532,–,0.0594,0.0517,–,0.0326,0.0562,–,0.0705,0.0547,–,0.0714,–,–,0.0453,–
MGESLFKGPRDYNPISSSICHLTNESDGHTTSLYGIGFGPFIITNKHLFRRNNGTLVVQSLHGVFKVKDTTTLQQHLVDGRDMIIIRMPKDFPPFPQKLKFREPQREERICLVTTNFQTKSMSSMVSDTSCTFPSGDGIFWKHWIQTKDGQCGSPLVSTRDGFIVGIHSASNFTNTNNYFTSVPKNFMELLTNQEAQQWVSGWRLNADSVLWGGRKVFMVKPEEPFQPVKEATQL [H215R],0.0538,–,–,0.0654,–,–,0.0631,–,0.0566,–,–,0.0465,0.0326,–,0.0578,0.0601,0.0548,–,–
MGESLFKGPRDYNPISSSICHLTNESDGHTTSLYGIGFGPFIITNKHLFRRNNGTLVVQSLHGVFKVKDTTTLQQHLVDGRDMIIIRMPKDFPPFPQKLKFREPQREERICLVTTNFQTKSMSSMVSDTSCTFPSGDGIFWKHWIQTKDGQCGSPLVSTRDGFIVGIHSASNFTNTNNYFTSVPKNFMELLTNQEAQQWVSGWRLNADSVLWGGHKVFMAKPEEPFQPVKEATQL [V220A],0.0555,0.0689,–,0.0725,–,0.0546,0.0706,–,–,0.0439,0.0491,–,–,–,0.0641,–,–,0.0755,–
MGESLFKGPRDYNPISSSICHLTNESDGHTTSLYGIGFGPFIITNKHLFRRNNGTLVVQSLHGVFKVKDTTTLQQHLVDGRDMIIIRMPKDFPPFPQKLKFREPQREERICLVTTNFQTKSMSSMVSDTSCTFPSGDGIFWKHWIQTKDGQCGSPLVSTRDGFIVGIHSASNFTNTNNYFTSVPKNFMELLTNQEAQQWVSGWRLNADSVLWGGHKVFMVKQEEPFQPVKEATQL [P222Q],0.0795,0.0608,–,0.0744,0.061,0.0749,0.0769,0.0735,0.0643,0.0473,–,–,0.0637,0.063,0.0618,0.0754,0.0682,0.0758,0.0739
MGESLFKGPRDYNPISSSICHLTNESDGHTTSLYGIGFGPFIITNKHLFRRNNGTLVVQSLHGVFKVKDTTTLQQHLVDGRDMIIIRMPKDFPPFPQKLKFREPQREERICLVTTNFQTKSMSSMVSDTSCTFPSGDGIFWKHWIQTKDGQCGSPLVSTRDGFIVGIHSASNFTNTNNYFTSVPKNFMELLTNQEAQQWVSGWRLNADSVLWGGHKVFMVKYEEPFQPVKEATQL [P222Y],0.0669,0.0618,0.0707,0.0766,–,–,0.0509,–,–,–,–,–,0.0864,–,0.0635,0.0636,0.0747,–,0.0743
MGESLFKGPRDYNPISSSICHLTNESDGHTTSLYGIGFGPFIITNKHLFRRNNGTLVVQSLHGVFKVKDTTTLQQHLVDGRDMIIIRMPKDFPPFPQKLKFREPQREERICLVTTNFQTKSMSSMVSDTSCTFPSGDGIFWKHWIQTKDGQCGSPLVSTRDGFIVGIHSASNFTNTNNYFTSVPKNFMELLTNQEAQQWVSGWRLNADSVLWGGHKVFMVKPREPFQPVKEATQL [E223R],0.0706,0.0575,0.0662,–,–,0.0694,0.0774,0.0655,0.0471,0.0466,0.0848,0.0697,0.0681,–,0.0585,0.0721,0.087,0.082,–
